Sequences with one replicate were seen in a single cluster, so their values are uncertain.
System: ATP
Assay: switch fluorescence ratio, 500 uM ATP over buffer (Cy3 cluster intensity, sum of 5 cycles each) (fold (ratio)); higher = stronger signal-on switching upon ATP binding; sequences stand for … in TCGTCGGCAGCGTCAGATGTGTATAAGAGACAGTTTTTTTTTTTTTTTTTTTTTTTTT…TC
Details: aptamer strand: ATP DNA aptamer (quencher-CACCTGGGGGAGTATTGCGGAGGAAGG + anchor), 100 nM annealed; ATP concentration: 500 uM; one replicate
How it was run: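 Per cluster, summed Cy3 intensity from the target cycles was divided by that from the buffer cycles to give the fluorescence ratio, then averaged per switch-domain sequence. Clusters outside 100-1000 RFU were excluded. The Cy3-labelled switching-strand clusters, on a modified Illumina MiSeq flow-cell, were annealed to 100 nM quencher-labelled ATP aptamer and imaged in selection buffer, then after 15 min with 500 uM ATP at 22 °C, for five cycles with NaOH stripping and re-annealing between them.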
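Note: ATP exposure 15 min at 22 °C before imaging.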

Row | Sequence | switch fluorescence ratio
1 | ATGTTCGTCG | 0.968
2 | TTCCACGGGA | 1.07
3 | GCTATTTATG | 0.988
4 | TATGTGGTCT | 1.01
5 | AGTGCAAGGA | 0.98
6 | TATAGGGGCG | 0.986
7 | CTTAGGCTTG | 1
8 | TAGTAGGGAT | 1.01
9 | AATGTAGTAG | 0.99
10 | GTTTATGTGC | 1.01
11 | TATTCATGGC | 0.97
12 | GCCATCAGGG | 1.1
13 | AGAGTATTG | 0.965
14 | ACGCTTCTAG | 1.03
15 | AGGGCACTGT | 0.973
16 | TCAGGAATTG | 0.992
17 | TTTGCGAGG | 0.97
18 | GCATTTGAT | 0.971
19 | TTTATATTGT | 0.998
20 | ACTATAGAGT | 1.05
21 | CATCTTGTCA | 1
22 | GTGCTGTCGG | 1.06
23 | CGAGATGGTC | 1.04
24 | GGTCATGATA | 0.975
25 | CCACTAACAG | 1.06
26 | GAACGACTAT | 1.05

Row | Sequence | switch fluorescence ratio
27 | GGTAATCCTT | 1.02
28 | CTCTTTACTA | 0.971
29 | AATACTCGCA | 1.22
30 | ACGTCCGGCC | 1.08
31 | TACACTGTTC | 0.985
32 | GTGGCCTGG | 1.01
33 | AAATAAGCAT | 0.992
34 | CTACGATTCT | 1.03
35 | TCAGAACCAC | 1.05
36 | CAGGCGTGAA | 1.04
37 | GAGTCCGGT | 0.965
38 | GTTTGTACAT | 1.02
39 | GCTCATTTTT | 1.01
40 | TGGTCACGTT | 1.03
41 | GTTGTAGAGA | 1.02
42 | TGCTCAAGAG | 1.03
43 | TTTCACACCG | 1.05
44 | TCCGATCGGG | 1.01
45 | AGGCTTAAC | 1.02
46 | CTAATTTGT | 0.996
47 | CAGTTTTGAC | 0.99
48 | AGTGTGATTT | 0.95
49 | GACGGTACTT | 1.48
50 | AAGAGCACCT | 1.06
51 | GTCAAGGGAT | 1.01
52 | TAGAACTCCG | 1.06

Row | Sequence | switch fluorescence ratio
53 | TTGTCTTAAC | 0.986
54 | GAATAACCGG | 0.946
55 | ATGAGTGT | 0.988
56 | AATTCACCTT | 1.13
57 | GAAGGCAGAC | 1.97
58 | CAGAACAAAT | 1.05
59 | GGCGTTACGC | 1.05
60 | AGTCGAGCT | 1.01
61 | AGCCTTTCGG | 0.954
62 | GCAATTTGT | 1.03
63 | TCCGCCGGGA | 1.96
64 | ATCGGGGTCT | 1.01
65 | ACTATCTTCA | 1.02
66 | GCGATTGTGC | 0.985
67 | AGCGCCGGCC | 0.978
68 | TTCTCTCTA | 1.05
69 | CATAAGTTGG | 0.979
70 | TTGAGCAACA | 1.04
71 | CGAGATGAAA | 1.01
72 | TGCCGGGAG | 1.01
73 | AGATAAGATG | 0.972
74 | TGGTCGGGCC | 1
75 | TGATTATCCA | 1.01
76 | TTTTGCCT | 1.01
77 | GAATAATAGT | 0.989
78 | TTCTTAGAGA | 1

Row | Sequence | switch fluorescence ratio
79 | GTGATCATGG | 1.01
80 | TATGCCCATT | 1.01
81 | TTCGTATGTA | 1.04
82 | ACTATCATCA | 0.993
83 | CTGCGACTGA | 1.01
84 | GGTCGGAAAT | 1
85 | TGTGGCTAG | 1
86 | GGTTTATCG | 0.961
87 | AGAGCACCAG | 1.05
88 | AGCAAGGCTC | 3
89 | TCACGGGGTA | 0.966
90 | ATCGACAAGA | 0.991
91 | TGACAACGCC | 1.28
92 | ATTTAATATT | 0.998
93 | AAAAAAGCCG | 1.12
94 | TTTCCATGTC | 0.991
95 | TCATCGCCGT | 1.06
96 | GTCATAGTAC | 1.06
97 | AGTGTACCGC | 1.06
98 | TAATAGGCTA | 1.01
99 | GGCATGATGG | 0.969
100 | TCGTGGTCCG | 0.948
101 | CAAGAGATTC | 1.01
102 | GGCGACTCTG | 1
103 | TCGTGGTTTG | 0.997
104 | TTCGGTTGTT | 0.983

Row | Sequence | switch fluorescence ratio
105 | AGTCACTGTT | 0.997
106 | TTTCTGTCGT | 0.987
107 | TCAGCCTGCG | 0.953
108 | CGGGAACATG | 0.989
109 | TTACCCAGTT | 1.07
110 | ATCATGTTTG | 0.98
111 | GTTACGGCTG | 0.985
112 | GGGCATTAGC | 1.03
113 | CCTAGGAAGT | 0.967
114 | GGACATCCGT | 1.03
115 | TCACTTTAGG | 0.992
116 | CAAATGGATC | 0.975
117 | AAATCATCCG | 1.14
118 | AGATGTTACG | 1.01
119 | TCTTCTTGAG | 0.948
120 | CCGGGCTACC | 1.48
121 | CAAGTCAGAT | 0.989
122 | GGACCAGCAT | 1.05
123 | ACACAGAAGA | 1.04
124 | GAATTATGCG | 0.945
125 | TGCGCCTAGC | 0.974
126 | GTTATCTGTT | 0.961
127 | CGCGCCCGCG | 0.995
128 | TCGGTGCTA | 1.03
129 | ATGACTTAAT | 1.03
130 | GCGTTCTTAC | 1.03

Row | Sequence | switch fluorescence ratio
131 | GTAATTCCTA | 1.04
132 | CCGGTACCCT | 1.04
133 | ATGGCGAAGG | 1.02
134 | ATTCAACTTG | 1.26
135 | ATCCACTATG | 1.04
136 | GTTTGCAGCT | 0.987
137 | GTGCGGTATC | 1.06
138 | GTTCCAGGCG | 1.06
139 | CCGTCAGAAC | 3.28
140 | AGGTTGCCCT | 0.951
141 | ATGGTTTGTT | 1.03
142 | TATCACAGGG | 1.06
143 | CATGCAAACC | 1.27
144 | CCATGGTGGA | 1.03
145 | CAGGCCATAC | 3.13
146 | TTCCTGGTA | 1
147 | CTGAAGCTGG | 1.93
148 | TCAATGGACG | 1.03
149 | GCCCTATTCA | 0.991
150 | TAAGAAAGCT | 1.2
151 | TAGACGACGG | 0.966
152 | TCCGCGACGA | 4.48
153 | CCGACTGTTT | 1.5
154 | AGGATAAGGT | 0.988
155 | CTTTAACGCT | 1.22
156 | TGCTCATAGT | 1.03

Row | Sequence | switch fluorescence ratio
157 | AGATCAGTTA | 1.01
158 | ACGTTTTCTG | 0.994
159 | ACGCACATCT | 1.37
160 | ATATATCATC | 0.973
161 | GTAGTCCATG | 0.987
162 | ATTTTCGTGA | 1
163 | TCATCGAACA | 1.02
164 | GGTTGTACTA | 1.01
165 | CGGACGTCTA | 1.12
166 | ACACTCAATA | 1.11
167 | CATGATTG | 0.986
168 | CGCTGACGTC | 1.05
169 | TACCAACACG | 1.2
170 | AGTAAGCTGT | 1
171 | TTATGGGCCT | 0.982
172 | CAACTCAATT | 1.01
173 | CGGGACCGTC | 1.02
174 | CCCATGGCTC | 1.06
175 | GTAGGGTATT | 1.03
176 | CTTCCCCTCG | 1.34
177 | TATGCAAGGG | 2.72
178 | TGGGCGTCTA | 1.01
179 | ACCTACTATA | 1.26
180 | TTAGACGACA | 1.14
181 | GCTCCTCAGC | 1.18
182 | GTAATCGGCC | 1.07

Row | Sequence | switch fluorescence ratio
183 | CGTTAGGGTT | 1
184 | CCCAATCAA | 1.09
185 | CGGCAGGAGC | 0.972
186 | AGCAGGATCT | 1.02
187 | GGGGTAACGA | 0.973
188 | CACGGCACCT | 1.69
189 | TTGAAGAGTT | 1.03
190 | GCTGGCTGTG | 1
191 | CAAGCTTGTT | 1
192 | TTTTCGTGGA | 0.985
193 | AGCAAAAAG | 1.09
194 | ATGCTTCACT | 0.953
195 | ATCCTGGAAA | 0.983
196 | TACTGGAATT | 1.03
197 | ATCAAGGAGT | 0.956
198 | AAGTTCCTTA | 0.993
199 | AATAACGTCT | 0.989
200 | ATTGTCCAGG | 1.53
201 | ATTAGATGTG | 0.993

Reference: the supplement of paper PMC10126150
